# Measurements reported in the supplement of paper PMC3334620.
# Whole data set: some 33,000 sequences, median “E-score (-0.5 to 0.5)” near -0.032, cut for the highest 2% near 0.36. The list shows a part of the results.
# Biological target: T1, Sko1 (UniProt Q02100)
# T1 sequence: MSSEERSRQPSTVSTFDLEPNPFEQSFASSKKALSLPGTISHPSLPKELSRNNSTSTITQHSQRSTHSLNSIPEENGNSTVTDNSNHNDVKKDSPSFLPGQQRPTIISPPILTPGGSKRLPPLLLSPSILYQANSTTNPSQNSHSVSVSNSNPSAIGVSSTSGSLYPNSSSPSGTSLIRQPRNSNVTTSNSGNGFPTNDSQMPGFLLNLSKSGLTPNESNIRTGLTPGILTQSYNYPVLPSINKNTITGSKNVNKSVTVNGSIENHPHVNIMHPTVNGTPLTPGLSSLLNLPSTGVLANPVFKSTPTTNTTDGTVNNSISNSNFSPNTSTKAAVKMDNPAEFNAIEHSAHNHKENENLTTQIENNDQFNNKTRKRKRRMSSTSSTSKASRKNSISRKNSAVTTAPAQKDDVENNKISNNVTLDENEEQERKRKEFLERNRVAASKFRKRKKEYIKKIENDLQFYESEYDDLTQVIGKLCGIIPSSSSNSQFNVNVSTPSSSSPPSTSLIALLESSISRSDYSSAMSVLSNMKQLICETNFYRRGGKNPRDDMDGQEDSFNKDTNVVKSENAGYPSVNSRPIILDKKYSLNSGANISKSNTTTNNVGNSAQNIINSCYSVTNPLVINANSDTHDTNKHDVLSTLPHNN
# Test: PBM E-score (8-mer binding enrichment) (E-score (-0.5 to 0.5)); higher = stronger / more preferred TF binding; most listed sequences are background and not binding sites
# Settings: protein concentration: 200 nM; construct: GST-full length
# Method in brief: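 E-scores (a modified Wilcoxon-Mann-Whitney statistic) were assigned by the Universal PBM Analysis Suite to every ungapped eight-base word pooled with its reverse complement. The input came from universal all-10-mer Agilent arrays made double-stranded by primer extension and probed with GST-tagged yeast transcription factors at about 100-200 nM. Fluorescent anti-GST detected bound protein, and masliner normalised the scans.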
row,Sequence,PBM E-score
1,CGCAGCAC,-0.109
2,AGAGCATA,-0.187
3,AATATGGG,-0.148
4,GCTCGGAC,-0.235
5,ATTCTTGC,0.0625
6,CGTCTGCC,-0.00999
7,GTCCACAC,-0.00777
8,CTGGAATA,0.0134
9,GATATATC,0.117
10,ACTGAGTA,-0.0657
11,AAGACCAG,-0.197
12,AACTACGC,0.305
13,CGTTTAGA,0.122
14,GAGCGCCA,-0.302
15,ACGGCGCG,0.0131
16,CGTCGACC,0.0891
17,ATAGCCGC,-0.0954
18,ACTCCATA,-0.0483
19,CACCGCAG,-0.277
20,GTAGCAAC,0.181
21,CACGTTGG,0.0694
22,AACAGGCA,-0.0464

row,Sequence,PBM E-score
1,CTTACACA,0.0832
2,GTCACCCA,0.0229
3,AGTAAAGA,0.0269
4,AATTTATC,0.157
5,ACCTGGAC,-0.316
6,CTAGATAC,0.152
7,AATCGGAG,-0.143
8,AAAACTAT,0.0433
9,CAAGACAA,0.069
10,GGGTGCCA,-0.219
11,TGCTCCCA,0.0122
12,AGCCACCG,-0.269
13,CTAGGTCC,-0.293
14,GCGACAGA,-0.0153
15,GAACACCC,-0.249
16,AATCTTTG,0.0752
17,GCAGCTGA,-0.164
18,CTACAAAA,0.101
19,AGGTAAAA,0.104
20,TTGTACAA,0.102
21,GAAGTCGA,-0.0594
22,GATTCCCC,-0.164

row,Sequence,PBM E-score
1,AACTGTTG,-0.179
2,ATGGTTTG,-0.0969
3,ATAGCAGA,-0.0268
4,AAGCCGCA,0.00253
5,GCTCTCAA,0.0152
6,AGCCAAGC,-0.245
7,GGGGACTA,-0.208
8,CTGGTACA,-0.00751
9,GAAAGGCC,-0.073
10,GGGAACCA,-0.104
11,CAAAACAG,-0.0368
12,CCTTACTC,-0.121
13,GCGGTGGA,-0.193
14,AGGCGGAT,-0.109
15,CACTTCTC,-0.219
16,ATTGCGAC,0.17
17,CTCCCGAG,-0.339
18,CGGCTGAG,-0.248
19,AGCTTATC,-0.129
20,CGAGTGCA,0.091
21,CTCGTAAG,0.243
22,GCATGTAC,0.0835

row,Sequence,PBM E-score
1,GGTGAGCA,-0.0791
2,CATAGCAA,0.0975
3,ATATTAAA,0.306
4,CTTTACGA,0.218
5,CGGTACCA,-0.229
6,TGTTAAAA,0.21
7,CCTGAAGC,-0.293
8,AAAAAGGA,-0.01
9,AAGTCCTG,-0.228
10,TAAGGTGA,0.0936
11,ACGCAGGC,0.0678
12,CGAAGTAG,-0.0675
13,CCTAGGCA,-0.257
14,CAGTAAAC,-0.0449
15,ACGTTAGC,0.352
16,ATGTACTG,-0.0689
17,ACGGCTCC,-0.209
18,CTCAGGTA,-0.0368
19,ACAACGAC,0.174
20,GAGGCCTC,-0.471
21,ATTAATAC,0.215
22,CTCAGGAG,-0.159

row,Sequence,PBM E-score
1,ACGGCTGC,-0.307
2,CCATCGAA,0.00557
3,CACCAGTG,-0.218
4,CAGACTAG,-0.234
5,CGCTGGAC,-0.172
6,AGTTTCAC,0.0462
7,CAGTTCCC,-0.152
8,CAGTTGGG,-0.154
9,ATAATCGA,0.0247
10,AGAGTGGG,-0.171
11,ACTTCCGC,-0.215
12,ACCGTCGC,-0.111
13,ACGCATAC,0.333
14,ACATGACT,-0.0468
15,CGCAGTCA,-0.00246
16,CTATTGCA,0.161
17,ACCTGTGG,-0.197
18,AGAACCCT,-0.272
19,CTCCTAGA,-0.243
20,CAAATAGA,0.106
21,GTACAAGA,0.0711
